Experimental data from PubChem BioAssay AID1345083 (National Center for Advancing Translational Sciences (NCATS), 2018).
Where “and” joins values, the source holds several entries; their conditions need not be identical. Equal entries are not always repeated. About 6,200 (6.6%) of roughly 94,000 compounds were called active. The shares of active, inactive and inconclusive entries below differ from those in the screen. Calls come from the whole dose curve; as a rule, active = well fitted inhibition curve with a large enough effect; inconclusive = small, poorly fitted or top-dose-only effect; inactive = flat fitted curve, though single readings scatter. Potencies of inconclusive entries are doubtful fits and often do not repeat.

Test: Cytotoxic Profiling in HEK 293 Cell Line of Diverse Libraries Using Quantitative High-Throughput Screening; note: nearly all actives have a fitted effect of over 60% in size
Details: HEK 293 viability, ATP luminescence (CellTiter-Glo), 48-72 h; activity change, negative = cytotoxicity: at 115 µM (top of the series) unless noted; series mostly up to 115 µM
In short: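 Read-out: CellTiter-Glo ATP luminescence. Cells: HEK 293, 250 cells/well. Exposure: 48 or 72 hr, 37 degree Celsius.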
% is set by controls: 0 for no effect and ±100 for the full control effect; potency is the fitted concentration of half-maximal effect; tags give direction and shape of the fitted curve.

Row | SMILES | Potency | activity change, negative = cytotoxicity | outcome
1 | CCOC(=O)N1CCC(=O)N(CC)C[C@H]2COc3cc(OC)ccc3[C@H]21 | inconclusive: 89.1 µM [inhibitor, single point] | – | –
2 | Cc1cccc(CN2CCCC(c3nc(CCOCC4CC4)no3)C2)c1 (configuration not stated) | inconclusive: 100 µM [inhibitor, single point] | – | –
3 | O=C(C1CCCC1)N1CCn2c(nn(-c3ccc(F)cc3)c2=O)C1 | inconclusive: 100 µM [inhibitor, partial curve, poor fit] | – | –
4 | COc1ccc(CCC(=O)N2CCN(c3nnc4ccc(Cl)cn34)CC2)cc1 | – | inactive: 0.769% | –
5 | Cc1ccc(NC(=O)C2CCN(c3cc(C(F)(F)F)ncn3)CC2)cc1Cl | inconclusive: 35.5 µM [inhibitor, partial curve, poor fit] | – | –
6 | Cc1c(-c2ccccc2F)[nH]c2ccc(CNC(=O)CCc3cnccn3)cc12 | inconclusive: 3.16 µM [inhibitor, full curve, poor fit] | – | –
7 | O=C(NCC1CC1)c1cn2cc(-c3cccc(C(F)(F)F)c3)sc2n1 | inconclusive: 50.1 µM [inhibitor, partial curve, poor fit] | – | –
8 | CCCCSc1ncc(CN2CCCC2c2ccc(C(N)=O)s2)cn1 (configuration not stated) | inconclusive: 28.2 µM [inhibitor, full curve] | – | –
9 | O=C1NC2(CN(Cc3ccccc3)C2)Oc2ccccc21 | inconclusive: 100 µM [inhibitor, partial curve, poor fit] | – | –
10 | Cc1ccc(Cl)cc1N1CCN(C(=O)CN2CC3CC(C2)[C@H]2CCCC(=O)N2C3)CC1 (some centres not stated) | inconclusive: 50.1 µM [inhibitor, partial curve, poor fit] | – | –
11 | COCCNC(=O)CCCN1C(=O)COc2ccc(C(=O)COc3ccc(Cl)c(C)c3)cc21 | inconclusive: 25.1 µM [inhibitor, full curve, poor fit] | – | –
12 | CC(=O)Nc1nc2c(s1)C[C@@H]1[C@](C)(CO)[C@H](O)CC[C@@]1(C)[C@@H]2CC(=O)NC1CC1 | – | inactive: -10.8% [at 172 µM] | –
13 | CC(C)CNC(=O)N1CCc2nc(OCC3CC3)ccc2C1 | inconclusive: 50.1 µM [inhibitor, partial curve, poor fit] | – | –
14 | COc1ccc(CN(C)Cc2cccc(C(F)(F)F)c2)cc1 | inconclusive: 126 µM [inhibitor, single point] | – | –
15 | Cc1cccc(-c2ccc3c(c2)C(=O)N2CC[C@H](NC(=O)NC(C)C)C[C@H]2C(=O)N3)c1C | inconclusive: 100 µM [inhibitor, partial curve, poor fit] | – | –
16 | C[C@@H]1CN(C(=O)c2ccc(F)cc2F)CC[C@@]1(O)C1CCOCC1 | – | inactive: -9.61% | –
17 | CC(=O)N1CC[C@H](c2nnc(Cc3c[nH]c4ccccc34)o2)C1 | – | inactive: -29.3% [at 172 µM] | –
18 | Cc1cccc(NC(=O)Cn2c(-c3ccccc3)nc(C)cc2=O)c1 | inconclusive: 50.1 µM [inhibitor, partial curve, poor fit] | – | –
19 | NC1CCc2n[nH]c(=O)n2CC1 (configuration not stated) | – | inactive: 2.99% | –
20 | CCCn1cc(C2CCN(S(=O)(=O)c3ccccc3Cl)CC2)c2ccccc21 | inconclusive: 7.94 µM [inhibitor, full curve, poor fit] | – | –
21 | CN(C(=O)Cc1cccc(Cl)c1)C1CCc2ccccc21 (configuration not stated) | inconclusive: 63.1 µM [inhibitor, partial curve, poor fit] | – | –

Row | SMILES | Potency | activity change, negative = cytotoxicity | outcome
22 | COc1ccc(C(=O)NC[C@H]2O[C@@H](CC(=O)N3CCN(c4ccccc4OC)CC3)[C@H](O)[C@@H]2O)cc1 | – | inactive: -11.3% | –
23 | COc1cc(F)cc(-c2cnc3[nH]cc(CC(=O)NCc4cccnc4)c3c2)c1 | inconclusive: 56.2 µM [inhibitor, partial curve, poor fit] | – | –
24 | Cc1noc([C@H]2CCN(Cc3cccs3)C[C@H]2NC(=O)C2CC2)n1 | – | inactive: -12.2% | –
25 | Cc1nccn1-c1ccc(CNC(=O)c2cn(-c3ccccc3)nn2)cc1 | inconclusive: 3.98 µM [inhibitor, full curve, poor fit] | – | –
26 | c1ccc2sc(C3CCCN(Cc4cc5n(n4)CCNC5)C3)nc2c1 (configuration not stated) | – | inactive: -28.7% | –
27 | CC(C)(C)c1oc(C(N)=O)cc1CN1CCCC(CO)(CC2CC2)C1 (configuration not stated) | – | inactive: -17% | –
28 | COCCCn1c(=O)c(C(=O)N2CCN(C(=O)Nc3ccc(Cl)cc3)CC2)nc2cccnc21 | inconclusive: 79.4 µM [inhibitor, single point] | – | –
29 | Cc1noc2c(N(C)C)cc(-c3cccs3)nc12 | inconclusive: 79.4 µM [inhibitor, full curve] | – | –
30 | CN1CCN(c2ccc(-c3cn(C)c(=O)n4cc(COc5ccnn5C)nc34)cn2)CC1 | inconclusive: 126 µM [inhibitor, single point] | – | –
31 | O=c1n(CC2CC2)nc2n1CCN(S(=O)(=O)c1ccc(Cl)s1)CC2 | – | inactive: -29.4% | –
32 | CNC(=O)c1cc(C)nc2onc(C3CCCN(C(=O)c4ccc(Cl)cc4)C3)c12 (configuration not stated) | inconclusive: 89.1 µM [inhibitor, partial curve, poor fit] | – | –
33 | CC(C)NC(=O)Cc1ccc(N(Cc2cccc(F)c2)C(=O)c2ccco2)cc1 | inconclusive: 50.1 µM [inhibitor, partial curve, poor fit] | – | –
34 | Cc1cccc2c1O[C@H]1[C@H](CO)CN(C(=O)CCc3ccccc3)[C@@H]21 | inconclusive: 25.1 µM [inhibitor, partial curve, poor fit] | – | –
35 | O=C1COCC2(CN1Cc1c(F)cccc1Cl)CN(c1ccccc1)C2 | inconclusive: 79.4 µM [inhibitor, partial curve] | – | –
36 | Cn1ncc(CN2CCc3[nH]cnc3C2c2cccc(C#N)c2)c1C1CC1 (configuration not stated) | – | inactive: -5.49% | –
37 | O=C(C1CCN([S+](=O)([O-])c2cccs2)CC1)N1CCC(N2Cc3ccccc3C2=O)CC1 | inactive and inconclusive: 35.5 µM [inhibitor, partial curve, poor fit] | – | –
38 | COc1ccc(CN(C)Cc2ccc(F)cc2)cc1 | – | inactive: -4.58% [at 172 µM] | –
39 | Cc1ccncc1C(=O)N1[C@@H]2CC[C@H]1CC(NC(=O)c1ccc(F)cc1)C2 (some centres not stated) | – | – | inactive
40 | Cc1cc(OC2CN(Cc3cccc4ccccc34)C2)ccc1F | active: 100 µM | – | –
41 | COc1ccc(F)cc1-c1cccc(C(=O)NCCNC(=O)c2ccccc2Cl)c1 | inconclusive: 28.2 µM [inhibitor, partial curve, poor fit] | – | –
42 | FC(F)(F)c1ccc(CN2CCC3(CC2)CC(c2cccnc2)=NO3)cc1 | inconclusive: 31.6 µM [inhibitor, partial curve] and inconclusive: 8.91 µM [inhibitor, full curve, poor fit] | – | –

Row | SMILES | Potency | activity change, negative = cytotoxicity | outcome
43 | Cc1nc2c(c(-c3ccc(O)cc3)n1)CN(Cc1ccccc1)CC2 | inconclusive: 79.4 µM [inhibitor, partial curve, poor fit] | – | –
44 | CCO[C@H]1CN(C(=O)c2ccccc2Cc2ccc(C)c(F)c2)C[C@@H]1O | inconclusive: 31.6 µM [inhibitor, full curve] | – | –
45 | COCCOC(=O)N1CCC(COc2ccc3c(cnn3CCC(=O)O)c2)CC1 | – | inactive: -14.3% [at 172 µM] | –
46 | O=C(CCn1cnc2ccccc2c1=O)N[C@@H]1COCC[C@H]1Oc1ccccn1 | – | inactive: -7.3% | –
47 | COc1ccc(CN2CC3(COCC2=O)CN(c2ccccc2)C3)cc1F | inconclusive: 126 µM [inhibitor, partial curve, poor fit] | – | –
48 | O=C(N[C@H]1CCN2C(=O)c3cc(-c4cccc(C(F)(F)F)c4)ccc3NC(=O)[C@H]12)C1CCCC1 | inconclusive: 50.1 µM [inhibitor, partial curve, poor fit] | – | –
49 | Cn1cnnc1CC1CCNC1 (configuration not stated) | – | inactive: -6.66% | –
50 | CCOCCN1C(=O)COC[C@@H]1[C@H](O)c1ccc(NC(=O)COc2ccccc2)cc1 | – | inactive: -27.4% [at 172 µM] | –
51 | c1ccc(Nc2cc3c(cn2)CN(Cc2ccsc2)CCN3)cc1 | inconclusive: 7.94 µM [inhibitor, full curve, poor fit] | – | –
52 | CCN1c2cc(C(=O)NCc3ccc(F)cc3Cl)ccc2C(=O)N2CCCCCC21 (configuration not stated) | inconclusive: 44.7 µM [inhibitor, partial curve, poor fit] | – | –
53 | Cc1sc2cc(C(=O)N3CCCCC3)[nH]c2c1CN1CCCCC1 | inconclusive: 89.1 µM [inhibitor, single point] | – | –
54 | Cc1ccsc1CN1C[C@@H]2C(C(=O)Nc3ccccc3)=NO[C@@H]2C1 | inconclusive: 100 µM [inhibitor, partial curve] | – | –
55 | COC(=O)[C@@H]1Cc2c([nH]c3ccccc23)[C@H]2C[C@@H](N3CCOCC3)C[C@@H](c3ccccc3)N21 | inconclusive: 79.4 µM [inhibitor, partial curve, poor fit] | – | –
56 | COc1ccccc1-c1cccc(C(=O)N2CCN([S+](=O)([O-])c3c(C)noc3C)CC2)c1 | inconclusive: 50.1 µM [inhibitor, partial curve, poor fit] | – | –
57 | CN(c1cc(=O)c2ccnc(-c3ccc(F)c(Cl)c3)c2o1)C1CCOCC1 | – | inactive: -16.8% [at 172 µM] | –
58 | CN(Cc1cccnc1)Cc1nc(C2(O)CCN(Cc3ccccc3)CC2)cs1 | inconclusive: 89.1 µM [inhibitor, partial curve, poor fit] | – | –
59 | Cc1nn(-c2ccccc2)c2c1C(C1CC1)N(CC1CN(C(=O)c3cccnc3)C1)C2=O (configuration not stated) | inconclusive: 56.2 µM [inhibitor, partial curve, poor fit] | – | –
60 | CCC(=O)N1Cc2ccccc2CC2(CCN(Cc3ccccc3)C2)C1 (configuration not stated) | inconclusive: 100 µM [inhibitor, single point] | – | –
61 | CC1(c2ccccc2)N(Cc2ccccc2C#N)C(=O)OC12CCN(C(=O)c1cccc(O)c1)CC2 (configuration not stated) | inconclusive: 50.1 µM [inhibitor, partial curve, poor fit] | – | –
62 | COc1cccc(-c2nc(-c3nnn4c3COC(c3ccc(Cl)cc3)C4)no2)c1 (configuration not stated) | – | inactive: 1.73% | –
